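How tested: cells in 96-well plates exposed to compound for 48 hours at five concentrations. GI50 marks 50% less growth.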 Activity calls are given as the source filed them. Cut-off read from the data, not from the text of the source: active = GI50 up to about 1.1 µM and inactive = higher.
What follows are compounds tested on NCI-H322M (assay: NCI-60 cell line screen, 48 h).
In the case of COC(=O)C1Cc2cccc(C)c2C1 (configuration not stated), the GI50 was inactive: > 100 µM.
CC1CC2C3CC(F)C4=CC(=O)C=CC4(C)C3(F)C(O)CC2(C)C1(O)C(=O)COC(=O)C(C)(C)C (configuration not stated) was tested, and the GI50 was inactive: > 100 µM.
For ClCCCCOC1CCCCO1 (configuration not stated), the GI50 was inactive: > 100 µM.
With Cc1ccc(S(=O)(=O)N/N=C2/CCC(C(C)(C)C)CC2Br)cc1 (configuration not stated) the GI50 was inactive: 44.8 µM.
With CN1CCN(CCCN2c3ccccc3Sc3ccc(C(F)(F)F)cc32)CC1 the GI50 was inactive: 12.8 µM.
With N=C(N)/N=C(\N)Nc1ccc(C(=O)O)cc1 the GI50 was inactive: > 100 µM.
With O=c1[nH]nc(Cc2ccccc2)n1/N=C/c1ccco1 the GI50 was inactive: > 100 µM.
For CCOP(=O)(C[S+](C)[O-])O[C@@H]1C[C@H](C)CC[C@H]1C(C)C (some centres not stated), the GI50 was inactive: 7.43 µM.
In the case of COc1ccccc1C[C@@H]1OC2(C=CC(=O)CC2SC(=O)c2ccccc2)O[C@H]1Cc1ccccc1OC (some centres not stated), the GI50 was inactive: 4.67 µM.
For O=c1c2c(no[n+]2[O-])c2ccccc2n1-c1ccccc1, the GI50 was inactive: 15.9 µM.
For Cc1cc2c(=O)cc(-c3ccncc3)oc2c(C(=O)O)c1C, the GI50 was inactive: > 100 µM.
For COc1ccc(/C(=N\NC(=S)NN)C(c2ccc(OC)cc2)C2C(=O)Oc3ccccc32)cc1 (configuration not stated), the GI50 was inactive: > 10 µM.
With COc1ccc2c(c1)/C(=C\c1cccc(/C=C3/C(=O)Nc4ccc(OC)cc43)n1)C(=O)N2 the GI50 was inactive: 4.3 µM.
In the case of Nc1nc(N)c(-c2cccc(C(F)(F)F)c2)c(Cc2cccc(C(F)(F)F)c2)n1, the GI50 was inactive: 3.56 µM.
CCCCSN1C(=O)c2ccccc2C1=S was tested, and the GI50 was inactive: > 100 µM.
CC1C=CC(O)[C@]2(CO)CC3(CCC12)OCCO3 (some centres not stated) was tested, and the GI50 was inactive: > 100 µM.
COc1c(C)c(C/C=C(\C)CCCC(C)CCCC(C)CCCC(C)C)c(OC)c2ccccc12 (configuration not stated) was tested, and the GI50 was inactive: > 100 µM.
CCOC(=O)C(C(=O)c1ccccc1)=C1NCCN1 was tested, and the GI50 was inactive: > 100 µM.
COc1ccc(-c2oc3cc(OC)c(OC)c(O)c3c(=O)c2OC)cc1 was tested, and the GI50 was inactive: > 100 µM.
COC(=O)C(=O)C(C(=O)C(=O)Nc1cc([N+](=O)[O-])ccc1C#N)c1nc2ccccc2nc1O (configuration not stated) was tested, and the GI50 was inactive: > 100 µM.
In the case of CCCCSCc1nc2nc(Cl)c(Cl)nc2[nH]1, the GI50 was inactive: 28.1 µM.
For Cc1cc2nc3ccccc3n2c2nc(N)ccc12, the GI50 was inactive: 37.8 µM.
O=C(O)CN1CCNCCN(CC(=O)O)CC1 was tested, and the GI50 was inactive: > 68.5 µM.
For CC12CCC(CC1=O)C2(C)CCC(N)=O (configuration not stated), the GI50 was inactive: > 100 µM.
O=S(=O)(O)Nc1ccc(-c2nc3ccccc3s2)cc1Cl was tested, and the GI50 was inactive: > 100 µM.
N#C/C(=C\c1ccccc1F)C(=O)c1ccccc1 was tested, and the GI50 was inactive: > 100 µM.
In the case of CC(C)Oc1c(O)c2c3c(oc(=O)n3C=CC2c2ccccc2)c1OC(C)C (configuration not stated), the GI50 was inactive: 45.8 µM.
Nc1ccc(S(=O)(=O)c2ccc(/N=[N+](\[O-])c3ccc(S(=O)(=O)c4ccc(N)cc4)cc3)cc2)cc1 was tested, and the GI50 was inactive: 52.5 µM.
For CC(C)(C)/C(O)=C\c1nc2ccc(C(F)(F)F)cc2[nH]c1=O, the GI50 was inactive: > 100 µM.
C[N+]1(CCC[N+]2(C)CC3C4C=CC(CC4)C3C2)CCOCC1 (configuration not stated) was tested, and the GI50 was inactive: > 100 µM.
CC1=C(C(=O)OCc2ccncc2)C(C2=C(C)SCCS2)C(C(=O)OCc2ccncc2)=C(C)N1 was tested, and the GI50 was inactive: 34.3 µM.
O=C1NCc2ccccc2S(=O)(=O)n2cccc21 was tested, and the GI50 was inactive: > 100 µM.
With COc1ccc(/C=C2\CCS(=O)(=O)c3ccccc3C2=O)cc1 the GI50 was inactive: 25.9 µM.
In the case of COc1ccc(C(=O)N2CCN(c3ccc4c(c3)OCC(=O)N4)CC2)cc1, the GI50 was inactive: > 100 µM.
For OCCOCCO[P+]1(OCCOCCO)n2c3ccc2C(c2ccccc2)=C2C=CC(=N2)C(c2ccccc2)=c2ccc(n21)=C(c1ccccc1)C1=NC(=C3c2ccccc2)C=C1, the GI50 was active: 0.147 µM.
In the case of COC(=O)/C=c1/c2ccccc2n2c1c1ccccc1[n+]2C, the GI50 was inactive: 4.8 µM.
For COc1cc(Br)c(C2OCCCO2)cc1OCc1ccccc1, the GI50 was inactive: 64.6 µM.
In the case of O=C1NC2(CCCC2)C(=O)C12CCCC2, the GI50 was inactive: > 100 µM.
Cc1ccc(-c2cc(-c3ccccc3)nc(N)n2)c(O)c1 was tested, and the GI50 was inactive: > 100 µM.
For O=c1c(=O)c2cscc2c1=O, the GI50 was inactive: 15.7 µM.
In the case of COc1ccc([C@H](NC(=O)c2ccccc2)[C@@H](O)C(=O)O[C@H]2C[C@@]3(O)C(OC(=O)c4ccccc4)C4[C@](C)(C(=O)[C@H](OC(C)=O)C(=C2C)C3(C)C)[C@@H](O)C[C@H]2OC[C@@]42OC(C)=O)cc1 (some centres not stated), the GI50 was active: 0.0238 µM.
In the case of COC(=O)NN1C(=O)C(=P(c2ccccc2)(c2ccccc2)c2ccccc2)C(C(=O)OC)=C1C, the GI50 was inactive: > 100 µM.
For N#Cc1ccc(OCCSCCCCCCCCCCSCCOc2ccc(C#N)cc2)cc1, the GI50 was inactive: > 100 µM.
Nc1nc(-c2ccccc2/N=N/N2CCCC2)nc2ccccc12 was tested, and the GI50 was inactive: 1.98 µM.
In the case of CCN(CC)C(=S)SS(=O)(=O)c1ccc(N)cc1, the GI50 was inactive: > 100 µM.
In the case of CCOC(=O)Nn1c(CC#N)nnc1Cc1ccccc1, the GI50 was inactive: > 100 µM.
For Cc1ccc(S(=O)(=O)Nc2nnc(S(N)(=O)=O)s2)cc1, the GI50 was inactive: > 100 µM.
With COc1cc(-c2ccccc2)c(OC)cc1CCl the GI50 was inactive: > 100 µM.
With COc1ccc(C2OC(c3ccncc3)=NN2C)cc1F (configuration not stated) the GI50 was inactive: > 100 µM.
CC(=O)NNc1nc(C)c(C(/C=C/c2ccc3c(c2)OCO3)=N/NC(=O)c2ccncc2)s1 was tested, and the GI50 was inactive: > 100 µM.
CCc1ccc(NCc2cc(OC)c(OC)c(OC)c2)cc1 was tested, and the GI50 was inactive: 3.04 µM.
For O=[N+]([O-])c1ccc(C2=NOC(c3ccc(Cl)cc3)N2C23CC4CC(CC(C4)C2)C3)cc1 (configuration not stated), the GI50 was inactive: > 100 µM.
For CCCCCCC(=O)C/C(CCC(=O)N(Cc1ccccc1)Cc1ccccc1)=N\NC(N)=O, the GI50 was inactive: > 100 µM.
With Cc1ccc(C2CC(=O)CC(c3ccc(C)cc3)C23C(=O)NC(=O)NC3=O)cc1 (configuration not stated) the GI50 was inactive: > 100 µM.
With COC(=O)C1(Cc2ccccc2)Cc2ccccc2C1 the GI50 was inactive: 48.5 µM.
With O=C1C2CC=CCC2C(=O)C12CCc1ccccc12 (configuration not stated) the GI50 was inactive: > 100 µM.
In the case of CCOc1ccc(NC(=O)CC2C(=O)Nc3ccccc3S2(=O)=O)cc1 (configuration not stated), the GI50 was inactive: > 100 µM.
In the case of CC1=NN(c2cccc(S(=O)(=O)O)c2)C2(C1)SCC(=O)N2c1nc2ccccc2s1 (configuration not stated), the GI50 was inactive: > 100 µM.
In the case of COC(=O)C1=C(C(=O)OC)N(C(C)C)[C@H]2C(C(=O)OC)=C(C(=O)OC)N(C(C)C)[C@@H]12, the GI50 was inactive: > 100 µM.
In the case of O=[N+]([O-])c1cc2[nH]nnc2c2nonc12, the GI50 was inactive: 37.6 µM.
CCCCCCCCCC[C@H](O)[C@H]1CC[C@H]([C@H]2CC[C@H]([C@H](O)CC[C@H](O)CCCCCCC[C@@H](O)CC3=C[C@H](C)OC3=O)O2)O1 was tested, and the GI50 was inactive: 91.4 µM.
With CC1(Cl)C(=O)NC(=O)N(C2CC(N=[N+]=[N-])C(CO)O2)C1N=[N+]=[N-] (configuration not stated) the GI50 was inactive: > 100 µM.
In the case of CCOC(=O)CSc1nc(-c2ccc(Cl)cc2)c(C#N)c(=O)[nH]1, the GI50 was inactive: > 100 µM.
For C#CCn1c(=O)c2ccccc2n(CC#C)c1=O, the GI50 was inactive: > 10 µM.
COc1ccc(C2=NN(c3nsc4ccccc34)C(=O)CC2)cc1 was tested, and the GI50 was inactive: > 100 µM.
With Cn1c(=O)c2nc(CCS)[nH]c2n(C)c1=O the GI50 was inactive: > 100 µM.
With COc1cc(/C=C\c2ccc(Cl)cc2)cc(OC)c1OC the GI50 was active: 0.436 µM.
